# Results taken from PubChem BioAssay AID602342 (Broad Institute, 2012).
# Where “and” joins values, the source holds several entries; their conditions need not be identical. Equal entries are not always repeated. About 1,000 (0.29%) of roughly 340,000 compounds were called active. Inconclusive means that the source gave no clear call. Such entries were picked first, then a sample of the others.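 Rule for the calls: active = mean replicate activation score at least 90 and every replicate individually at or above 90; inconclusive = only one of the two criteria met; inactive = neither criterion met.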
# Experiment: miR-122 Renilla sensor signal increase in Huh7, primary screen, miR-122 inhibitor project, cell-based, single point, plate reader (AID 602342);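 note: higher luciferase means less miR-122 activity so hits act as miR-122 inhibitors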
# Settings: Huh7 miR-122 Renilla luciferase sensor, 48 h, active compounds read high, neutral wells = 0, positive control = 100
smiles,measurement,setting,value
O=C(/C=C/c1ccccc1)Nc1nc(-c2ccncc2)cs1,activation (reporter increase),at 12.5 µM unless noted,inactive: 7.45%
CC(NC(=S)Nc1ccc(Cl)cc1Cl)C(c1cccs1)N1CCCC1 (stereo not drawn),activation (reporter increase),at 12.5 µM unless noted,inconclusive: 110%
CSc1ncccc1C(=O)OCc1ccc([N+](=O)[O-])cc1,activation (reporter increase),at 12.5 µM unless noted,inactive: -0.72%
O=C(O)Cn1c(O)c(C2=c3ccccc3=NC2=O)sc1=O,activation (reporter increase),at 12.5 µM unless noted,inactive: -1.81%
CCc1noc(C)c1C(=O)Nc1ncc(C)s1,activation (reporter increase),at 12.5 µM unless noted,inactive: 5.09%
COc1ccc(NC(C)=O)cc1NC(C)C(=O)Nc1cc(C(F)(F)F)ccc1N1CCOCC1 (stereo not drawn),activation (reporter increase),at 12.5 µM unless noted,inconclusive: 97.1%
O=[N+]([O-])c1ccccc1S(=O)(=O)Nc1ccc(S(=O)(=O)N2CCOCC2)cc1,activation (reporter increase),at 12.5 µM unless noted,inactive: -1%
O=S(=O)(NCCc1ccccc1)c1ccc(F)cc1Br,activation (reporter increase),at 12.5 µM unless noted,inconclusive: 95.5%
Cc1ncc([N+](=O)[O-])n1CC(=O)Nc1ccc2c(c1)OCO2,activation (reporter increase),at 12.5 µM unless noted,inconclusive: 117%
C[C@H]1CN([C@@H](C)CO)C(=O)Cc2cc(NS(C)(=O)=O)ccc2O[C@@H]1CN(C)S(=O)(=O)c1ccc(F)cc1,activation (reporter increase),at 12.5 µM unless noted,inactive: -4.87% [at 16.7 µM]
CCOc1ccc(S(=O)(=O)N2CCC(C(N)=O)CC2)c2ccccc12,activation (reporter increase),at 12.5 µM unless noted,inconclusive: 90%
C[C@@H]1CN([C@H](C)CO)C(=O)Cc2cc(NC(=O)Nc3ccccc3)ccc2O[C@@H]1CN(C)C(=O)Nc1cccc2ccccc12,activation (reporter increase),at 12.5 µM unless noted,inconclusive: 96.8% [at 16.7 µM]
CC(C)NC(=O)N(C)C[C@H]1Oc2cc(C#Cc3ccc(F)cc3)ccc2S(=O)(=O)N([C@H](C)CO)C[C@H]1C,activation (reporter increase),at 12.5 µM,inactive: -6.79%
same,activation (reporter increase),at 16.7 µM,inactive: -11.6% and inactive: -8.46%
O=S(=O)(c1ccccc1F)N1CC[C@@H]2[C@@H](CO)Nc3ccc(-c4ccc(F)cc4)cc3[C@@H]21,activation (reporter increase),at 12.5 µM unless noted,inconclusive: 96.4% [at 16.7 µM]
CC1CCCCC1NC(=S)Nc1ccc(SC(F)F)cc1 (stereo not drawn),activation (reporter increase),at 12.5 µM unless noted,active: 115%
CCc1c(C(=O)NC2CCCc3ccccc32)[nH]c(C)c1C(C)=O (stereo not drawn),activation (reporter increase),at 12.5 µM unless noted,inconclusive: 110%
O=C(CC1CC1)Nc1ccc2c(c1)[C@@H]1C[C@H](CC(=O)N3CCc4ccccc4C3)O[C@@H](CO)[C@@H]1O2,activation (reporter increase),at 12.5 µM unless noted,inactive: -3.02% [at 16.7 µM]
CCC(C)(C)n1nnnc1C(c1ccc(C)cc1)N1CCC(C)CC1 (stereo not drawn),activation (reporter increase),at 12.5 µM unless noted,inconclusive: 99.3%
Cc1ccc(-c2nnc(SCc3ccc(C#N)cc3)n2Cc2ccco2)cc1,activation (reporter increase),at 12.5 µM unless noted,inconclusive: 92.2%
C=CCn1cc(C(=O)N2CCc3ccccc3C2)c(=O)c2cc(S(=O)(=O)N(CC)CC)ccc21,activation (reporter increase),at 12.5 µM unless noted,inconclusive: 108%
C[C@H](CO)N1C[C@H](C)[C@@H](CN(C)Cc2ccccc2)Oc2c(NS(=O)(=O)c3ccccc3)cccc2C1=O,activation (reporter increase),at 12.5 µM unless noted,inconclusive: 93.3% [at 16.7 µM]
Cc1ccc(C)c(NC(=O)CSc2nnc(CCNC(=O)OC(C)(C)C)o2)c1,activation (reporter increase),at 12.5 µM unless noted,inconclusive: 110%
Cc1ccc(NS(=O)(=O)c2ccc3c(c2)n(C)c(=O)n3C)cc1C,activation (reporter increase),at 12.5 µM unless noted,inconclusive: 90.1%
Cc1cc(C)cc(NC(=S)NCc2cccn2C)c1,activation (reporter increase),at 12.5 µM unless noted,inactive: -0.679%
O=C(C[C@H]1CC[C@H]2[C@@H](COC[C@H](O)CN2S(=O)(=O)c2ccc(Cl)cc2)O1)N[C@@H]1CCN(Cc2ccccc2)C1,activation (reporter increase),at 12.5 µM unless noted,inactive: -0.147% [at 16.7 µM]
COc1ccc(NS(=O)(=O)c2cc(NS(=O)(=O)c3cccs3)ccc2C)cc1,activation (reporter increase),at 12.5 µM unless noted,inconclusive: 94.2%
Cc1cc(S(=O)(=O)NC2CCCCC2)c(C)s1,activation (reporter increase),at 12.5 µM unless noted,active: 260%
O=S(=O)(NCC1CCCO1)c1ccc(Oc2ccccc2)cc1 (stereo not drawn),activation (reporter increase),at 12.5 µM unless noted,inconclusive: 132%
COc1ccc2nc(SCC(=O)NCc3ccc(F)cc3)[nH]c2c1,activation (reporter increase),at 12.5 µM unless noted,inactive: 1.49%
C=CCOc1ccc(Oc2cc(C)nc(SC)n2)nn1,activation (reporter increase),at 12.5 µM unless noted,inconclusive: 102%
Cc1ccc(S(=O)(=O)N(C)C[C@@H]2Oc3ccc(N(C)C)cc3C(=O)N([C@H](C)CO)C[C@H]2C)cc1,activation (reporter increase),at 12.5 µM unless noted,inactive: 1.86% [at 16.7 µM]
O=C(C[C@@H]1CC[C@H](NC(=O)c2ccc3c(c2)OCO3)[C@@H](CO)O1)NC1Cc2ccccc2C1,activation (reporter increase),at 12.5 µM unless noted,inactive: -11.6% [at 16.7 µM]
CCOc1ccc(-c2cc(N)n(S(=O)(=O)c3ccc(OC)c(OC)c3)n2)cc1,activation (reporter increase),at 12.5 µM unless noted,inconclusive: 92.1%
C[C@@H]1CN([C@@H](C)CO)C(=O)c2cc(NC(=O)NC3CCCCC3)ccc2O[C@@H](C)CCCCO[C@H]1CN(C)C,activation (reporter increase),at 12.5 µM unless noted,inactive: -5.68% [at 16.7 µM]
Cc1ccc(C)c(S(=O)(=O)Nc2ccc3sc(C)nc3c2)c1,activation (reporter increase),at 12.5 µM unless noted,active: 428%
CCN(CC)C(=S)Nc1ccc(Cl)c(Cl)c1,activation (reporter increase),at 12.5 µM unless noted,inconclusive: 102%
C=CCN(CC=C)S(=O)(=O)c1ccc2nc(NC(=O)C(C)C)sc2c1,activation (reporter increase),at 12.5 µM unless noted,active: 122%
